# The list shows a part of the results.
# B1: Gal 9 (Homo sapiens), O00182 (protein)
# chain: MAFSGSQAPYLSPAVPFSGTIQGGLQDGLQITVNGTVLSSSGTRFAVNFQTGFSGNDIAFHFNPRFEDGGYVVCNTRQNGSWGPEERKTHMPFQKGMPFDLCFLVQSSDFKVMVNGILFVQYFHRVPFHRVDTISVNGSVQLSYISFQNPRTVPVQPAFSTVPFSQPVCFPPRPRGRRQKPPGVWPANPAPITQTVIHTVQSAPGQMFSTPAIPPMMYPHPAYPMPFITTILGGLYPSKSILLSGTVLPSAQRFHINLCSGNHIAFHLNPRFDENAVVRNTQIDNSWGSEERSLPRKMPFVRGQSFSVWILCEAHCLKVAVDGQHLFEYYHRLRNLPTINRLEVGGDIQLTHVQT
# Legend:
# Test in all cases: glycan array binding signal (z-score within array); higher = stronger binding
# Conditions in all cases: glycan notation: IUPAC condensed, linker removed
# [1] = target: Gal(b1-4)GlcNAc(b1-2)[Gal(b1-4)GlcNAc(b1-6)]Man(a1-6)[GlcNAc(b1-4)][Gal(b1-4)GlcNAc(b1-2)Man(a1-3)]Man(b1-4)GlcNAc(b1-4)GlcNAc
# Method in brief: (§1)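 Glycan array binding is given as a within-array Z-score, which can be read as non-binding when negative. The arrays, 3228 of them, came from the Consortium for Functional Glycomics database and were retained only where the protein sequence was available. Z-scores were averaged across arrays of the same protein sequence at different concentrations or buffers and across linkers.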
# [2] = target: Gal(b1-4)GlcNAc(b1-2)[Gal(b1-4)GlcNAc(b1-6)]Man(a1-6)[GlcNAc(b1-4)][Gal(b1-4)GlcNAc(b1-2)[Gal(b1-4)GlcNAc(b1-4)]Man(a1-3)]Man(b1-4)GlcNAc(b1-4)[Fuc(a1-6)]GlcNAc
# Method in brief: as §1
# [3] = target: Gal(b1-4)GlcNAc(b1-3)Gal(b1-3)GalNAc
# Method in brief: as §1
# [4] = target: Gal(b1-4)GlcNAc(b1-3)Gal(b1-3)GlcNAc
# Method in brief: as §1
# [5] = target: Gal(b1-4)GlcNAc(b1-3)Gal(b1-4)Glc
# Method in brief: as §1
# [6] = target: Gal(b1-4)GlcNAc(b1-3)Gal(b1-4)GlcNAc
# Method in brief: as §1
# [7] = target: Gal(b1-4)GlcNAc(b1-3)Gal(b1-4)GlcNAc(b1-2)Man(a1-3)[Gal(b1-4)GlcNAc(b1-3)Gal(b1-4)GlcNAc(b1-2)Man(a1-6)]Man(b1-4)GlcNAc(b1-4)GlcNAc
# Method in brief: as §1
# [8] = target: Gal(b1-4)GlcNAc(b1-3)Gal(b1-4)GlcNAc(b1-2)Man(a1-3)[Gal(b1-4)GlcNAc(b1-3)Gal(b1-4)GlcNAc(b1-2)Man(a1-6)]Man(b1-4)GlcNAc(b1-4)[Fuc(a1-6)]GlcNAc
# Method in brief: as §1
# [9] = target: Gal(b1-4)GlcNAc(b1-3)Gal(b1-4)GlcNAc(b1-2)[Gal(b1-4)GlcNAc(b1-3)Gal(b1-4)GlcNAc(b1-6)]Man(a1-6)[Gal(b1-4)GlcNAc(b1-3)Gal(b1-4)GlcNAc(b1-2)Man(a1-3)]Man(b1-4)GlcNAc(b1-4)GlcNAc
# Method in brief: as §1
# [10] = target: Gal(b1-4)GlcNAc(b1-3)Gal(b1-4)GlcNAc(b1-2)[Gal(b1-4)GlcNAc(b1-3)Gal(b1-4)GlcNAc(b1-6)]Man(a1-6)[Gal(b1-4)GlcNAc(b1-3)Gal(b1-4)GlcNAc(b1-2)Man(a1-3)]Man(b1-4)GlcNAc(b1-4)[Fuc(a1-6)]GlcNAc
# Method in brief: as §1
# [11] = target: Gal(b1-4)GlcNAc(b1-3)Gal(b1-4)GlcNAc(b1-3)Gal(b1-4)GlcNAc
# Method in brief: as §1
# [12] = target: Gal(b1-4)GlcNAc(b1-3)Gal(b1-4)GlcNAc(b1-3)Gal(b1-4)GlcNAc(b1-2)Man(a1-3)[Gal(b1-4)GlcNAc(b1-3)Gal(b1-4)GlcNAc(b1-3)Gal(b1-4)GlcNAc(b1-2)Man(a1-6)]Man(b1-4)GlcNAc(b1-4)GlcNAc
# Method in brief: as §1
# [13] = target: Gal(b1-4)GlcNAc(b1-3)Gal(b1-4)GlcNAc(b1-3)Gal(b1-4)GlcNAc(b1-2)Man(a1-3)[Gal(b1-4)GlcNAc(b1-3)Gal(b1-4)GlcNAc(b1-3)Gal(b1-4)GlcNAc(b1-2)Man(a1-6)]Man(b1-4)GlcNAc(b1-4)[Fuc(a1-6)]GlcNAc
# Method in brief: as §1
# [14] = target: Gal(b1-4)GlcNAc(b1-3)Gal(b1-4)GlcNAc(b1-3)Gal(b1-4)GlcNAc(b1-2)[Gal(b1-4)GlcNAc(b1-3)Gal(b1-4)GlcNAc(b1-3)Gal(b1-4)GlcNAc(b1-6)]Man(a1-6)[Gal(b1-4)GlcNAc(b1-3)Gal(b1-4)GlcNAc(b1-3)Gal(b1-4)GlcNAc(b1-2)Man(a1-3)]Man(b1-4)GlcNAc(b1-4)[Fuc(a1-6)]GlcNAc
# Method in brief: as §1
# [15] = target: Gal(b1-4)GlcNAc(b1-3)Gal(b1-4)GlcNAc(b1-3)Gal(b1-4)GlcNAc(b1-3)Gal(b1-4)GlcNAc(b1-2)Man(a1-3)[Gal(b1-4)GlcNAc(b1-3)Gal(b1-4)GlcNAc(b1-3)Gal(b1-4)GlcNAc(b1-3)Gal(b1-4)GlcNAc(b1-2)Man(a1-6)]Man(b1-4)GlcNAc(b1-4)GlcNAc
# Method in brief: as §1
# [16] = target: Gal(b1-4)GlcNAc(b1-3)Gal(b1-4)GlcNAc(b1-3)Gal(b1-4)GlcNAc(b1-3)Gal(b1-4)GlcNAc(b1-2)Man(a1-3)[Gal(b1-4)GlcNAc(b1-3)Gal(b1-4)GlcNAc(b1-3)Gal(b1-4)GlcNAc(b1-3)Gal(b1-4)GlcNAc(b1-2)Man(a1-6)]Man(b1-4)GlcNAc(b1-4)[Fuc(a1-6)]GlcNAc
# Method in brief: as §1
# [17] = target: Gal(b1-4)GlcNAc(b1-3)Gal(b1-4)GlcNAc(b1-3)Gal(b1-4)GlcNAc(b1-3)Gal(b1-4)GlcNAc(b1-2)[Gal(b1-4)GlcNAc(b1-3)Gal(b1-4)GlcNAc(b1-3)Gal(b1-4)GlcNAc(b1-3)Gal(b1-4)GlcNAc(b1-6)]Man(a1-6)[Gal(b1-4)GlcNAc(b1-3)Gal(b1-4)GlcNAc(b1-3)Gal(b1-4)GlcNAc(b1-3)Gal(b1-4)GlcNAc(b1-2)Man(a1-3)]Man(b1-4)GlcNAc(b1-4)[Fuc(a1-6)]GlcNAc
# Method in brief: as §1
# [18] = target: Gal(b1-4)GlcNAc(b1-3)Gal(b1-4)GlcNAc(b1-3)Gal(b1-4)GlcNAc(b1-3)Gal(b1-4)GlcNAc(b1-3)Gal(b1-4)GlcNAc(b1-2)Man(a1-3)[Gal(b1-4)GlcNAc(b1-3)Gal(b1-4)GlcNAc(b1-3)Gal(b1-4)GlcNAc(b1-3)Gal(b1-4)GlcNAc(b1-3)Gal(b1-4)GlcNAc(b1-2)Man(a1-6)]Man(b1-4)GlcNAc(b1-4)GlcNAc
# Method in brief: as §1
# [19] = target: Gal(b1-4)GlcNAc(b1-3)Gal(b1-4)GlcNAc(b1-3)Gal(b1-4)GlcNAc(b1-3)Gal(b1-4)GlcNAc(b1-3)Gal(b1-4)GlcNAc(b1-2)Man(a1-3)[Gal(b1-4)GlcNAc(b1-3)Gal(b1-4)GlcNAc(b1-3)Gal(b1-4)GlcNAc(b1-3)Gal(b1-4)GlcNAc(b1-3)Gal(b1-4)GlcNAc(b1-2)Man(a1-6)]Man(b1-4)GlcNAc(b1-4)[Fuc(a1-6)]GlcNAc
# Method in brief: as §1
# [20] = target: Gal(b1-4)GlcNAc(b1-3)Gal(b1-4)GlcNAc(b1-3)Gal(b1-4)GlcNAc(b1-3)Gal(b1-4)GlcNAc(b1-3)Gal(b1-4)GlcNAc(b1-2)[Gal(b1-4)GlcNAc(b1-3)Gal(b1-4)GlcNAc(b1-3)Gal(b1-4)GlcNAc(b1-3)Gal(b1-4)GlcNAc(b1-3)Gal(b1-4)GlcNAc(b1-6)]Man(a1-6)[Gal(b1-4)GlcNAc(b1-3)Gal(b1-4)GlcNAc(b1-3)Gal(b1-4)GlcNAc(b1-3)Gal(b1-4)GlcNAc(b1-3)Gal(b1-4)GlcNAc(b1-2)Man(a1-3)]Man(b1-4)GlcNAc(b1-4)[Fuc(a1-6)]GlcNAc
# Method in brief: as §1
# [21] = target: Gal(b1-4)GlcNAc(b1-3)Gal(b1-4)GlcNAc(b1-3)Gal(b1-4)GlcNAc(b1-3)Gal(b1-4)GlcNAc(b1-3)Gal(b1-4)GlcNAc(b1-3)Gal(b1-4)GlcNAc(b1-2)Man(a1-3)[Gal(b1-4)GlcNAc(b1-3)Gal(b1-4)GlcNAc(b1-3)Gal(b1-4)GlcNAc(b1-3)Gal(b1-4)GlcNAc(b1-3)Gal(b1-4)GlcNAc(b1-3)Gal(b1-4)GlcNAc(b1-2)Man(a1-6)]Man(b1-4)GlcNAc(b1-4)GlcNAc
# Method in brief: as §1
# [22] = target: Gal(b1-4)GlcNAc(b1-3)Gal(b1-4)GlcNAc(b1-3)GalNAc
# Method in brief: as §1
# [23] = target: Gal(b1-4)GlcNAc(b1-3)Gal(b1-4)GlcNAc(b1-3)[Gal(b1-4)GlcNAc(b1-3)Gal(b1-4)GlcNAc(b1-6)]GalNAc
# Method in brief: as §1
# [24] = target: Gal(b1-4)GlcNAc(b1-3)Gal(b1-4)GlcNAc(b1-6)[Gal(b1-3)]GalNAc
# Method in brief: as §1
# [25] = target: Gal(b1-4)GlcNAc(b1-3)Gal(b1-4)[Fuc(a1-3)GlcNAc(b1-6)]Gal(b1-4)Glc
# Method in brief: as §1
# [26] = target: Gal(b1-4)GlcNAc(b1-3)Gal(b1-4)[Fuc(a1-3)]GlcNAc(b1-3)Gal(b1-4)[Fuc(a1-3)]GlcNAc
# Method in brief: as §1
# [27] = target: Gal(b1-4)GlcNAc(b1-3)GalNAc
# Method in brief: as §1
# [28] = target: Gal(b1-4)GlcNAc(b1-3)[Fuc(a1-3)GlcNAc(b1-6)]Gal(b1-4)Glc
# Method in brief: as §1
# [29] = target: Gal(b1-4)GlcNAc(b1-3)[Gal(b1-4)GlcNAc(b1-6)]Gal(b1-4)GlcNAc
# Method in brief: as §1
# [30] = target: Gal(b1-4)GlcNAc(b1-3)[Gal(b1-4)GlcNAc(b1-6)]GalNAc
# Method in brief: as §1
# [31] = target: Gal(b1-4)GlcNAc(b1-3)[GlcNAc(b1-6)]Gal(b1-4)GlcNAc
# Method in brief: as §1
# [32] = target: Gal(b1-4)GlcNAc(b1-6)Gal(b1-4)GlcNAc
# Method in brief: as §1
# [33] = target: Gal(b1-4)GlcNAc(b1-6)GalNAc
# Method in brief: as §1
# [34] = target: Gal(b1-4)GlcNAc(b1-6)[Gal(b1-3)]GalNAc
# Method in brief: as §1
# [35] = target: Gal(b1-4)GlcNAc(b1-6)[Gal(b1-4)GlcNAc(b1-3)]GalNAc
# Method in brief: as §1
# Gal(b1-4)GlcNAc6P = target: Gal(b1-4)GlcNAc6P
# Method in brief: as §1
# Gal(b1-6)Gal = target: Gal(b1-6)Gal
# Method in brief: as §1
binder,measurement,setting,value
B1,glycan array binding signal (z-score),[1],3.87
same,glycan array binding signal (z-score),[2],-0.28
same,glycan array binding signal (z-score),[3],0.352
same,glycan array binding signal (z-score),[4],0.445
same,glycan array binding signal (z-score),[5],0.606
same,glycan array binding signal (z-score),[6],1.14
same,glycan array binding signal (z-score),[7],1.43
same,glycan array binding signal (z-score),[8],3.15
same,glycan array binding signal (z-score),[9],0.18
same,glycan array binding signal (z-score),[10],2.43
same,glycan array binding signal (z-score),[11],0.893
same,glycan array binding signal (z-score),[12],2.36
same,glycan array binding signal (z-score),[13],3.51
same,glycan array binding signal (z-score),[14],2.76
same,glycan array binding signal (z-score),[15],1.11
same,glycan array binding signal (z-score),[16],3.19
same,glycan array binding signal (z-score),[17],9.56
same,glycan array binding signal (z-score),[18],4.95
same,glycan array binding signal (z-score),[19],4.2
same,glycan array binding signal (z-score),[20],2.45
same,glycan array binding signal (z-score),[21],9.39
same,glycan array binding signal (z-score),[22],-0.271
same,glycan array binding signal (z-score),[23],-0.264
same,glycan array binding signal (z-score),[24],-0.218
same,glycan array binding signal (z-score),[25],0.418
same,glycan array binding signal (z-score),[26],0.383
same,glycan array binding signal (z-score),[27],-0.134
same,glycan array binding signal (z-score),[28],-0.285
same,glycan array binding signal (z-score),[29],1.11
same,glycan array binding signal (z-score),[30],0.824
same,glycan array binding signal (z-score),[31],0.555
same,glycan array binding signal (z-score),[32],-0.17
same,glycan array binding signal (z-score),[33],-0.235
same,glycan array binding signal (z-score),[34],-0.234
same,glycan array binding signal (z-score),[35],-0.275
same,glycan array binding signal (z-score),Gal(b1-4)GlcNAc6P,-0.298
same,glycan array binding signal (z-score),Gal(b1-6)Gal,-0.318

# — the supplement of paper PMC8728848
